Measured values as given in PubChem BioAssay AID1963576 (National Center for Advancing Translational Sciences (NCATS), 2024).
In all, about 46,000 compounds went through this assay and about 60 (0.1%) were called active. Another 3% or so got no clear call; they are omitted. Calls come from the whole dose curve; as a rule, active = well fitted inhibition curve with a large enough effect; inconclusive = small, poorly fitted or top-dose-only effect; inactive = no such curve, though single readings can be large or run the other way. This is one part of the list.

Experiment: Primary qHTS assay for Inhibitors of ovarian cancer metastasis using an organotypic tumor microenvironment (TME) model.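 For activity change, negative = inhibition: plate controls were DMSO wells for no effect and tomatine positive control wells for full effect.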 Note: nearly all actives have a fitted effect of over 65% in size.
Conditions: SKOV3ip1-GFP adhesion/invasion on 3D omental model, fluorescence; series mostly up to 45.8 µM; activity change, negative = inhibition: at the top concentration
How it was run: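 Adhesion/invasion was scored as fixed GFP-labeled SKOV3ip1 cell counts (488/509 nm), normalized to DMSO and tomatine controls. Cancer cells in serum-free medium, with four compound doses (0.36-46 umol/L), sat 2 hr at RT then 16 hr at 37 C on a 48 hr fibroblast/mesothelial/ECM culture.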

Activity change, negative = inhibition, inactive:
COc1ccc(Br)cc1CNC(=O)c1cc(=O)[nH]c2ccc(S(=O)(=O)N3CCCCC3C)cc12 (stereo unspecified) 0.933%
CCOc1ccc(C(=O)Nc2cccc(C(=O)OCc3cc(=O)n4cc(C)sc4n3)c2)cc1 -4.15%
Cc1cccc2nc(Cn3c(=O)n(-c4ccc(Cl)cc4)c(=O)c4c5c(sc43)CCC5)cc(=O)n12 -1.23%
COc1ccc(S(=O)(=O)N(CC(=O)N2CCc3ccccc3C2)c2ccc(C)cc2)cc1 5.65%
COc1ccc(OC)c(CNS(=O)(=O)c2ccc3c(c2)oc(=O)n3C)c1 -5.1%
Cc1cccc(C)c1NC(=O)C1CCCN1S(=O)(=O)c1ccccc1 (stereo unspecified) 4.85%
CC(=O)N1c2ccc(S(=O)(=O)N3CCC(C(=O)Nc4cccc(Cl)c4C)CC3)cc2CC1C (stereo unspecified) 10.6%
CN(C)c1ccc(CNC(=O)Cc2ccc(NC(=O)N3CCCCc4ccccc43)cc2)cc1 0.0366%
Cc1ccccc1OC(=O)c1nc(SCc2ccccc2F)ncc1Cl 1.88%
COc1ccc(N2CCN(CCCNC(=O)c3nnc(Cc4ccc(F)cc4)o3)CC2)cc1 -4.63%
CCOC(=O)Cn1c(=O)n(-c2cccc(Cl)c2)c2nc(-c3ccccc3Cl)nc(C(N)=O)c21 14.1%
Cc1ccc2c(CC(=O)Nc3ccc(S(=O)(=O)N4CCCCC4C)cc3)coc2c1C (stereo unspecified) -23%
Cc1ccc(N2CCN(S(=O)(=O)c3nnc(NC(=O)c4ccccc4)s3)CC2)cc1 5.76%
O=C(Cn1cnc2nc3c(cc2c1=O)CCCC3)Nc1ccc(F)cc1Cl 9.95%
CCOCCc1nnc(NC(=O)C(=O)c2cc(C)n(-c3ccc(C)c(C)c3)c2C)s1 6.81%
Cc1ccc(C)c(N2CCN(c3nc4ccc(C)cc4nc3-n3nc(C)cc3C)CC2)c1 -13.9%
O=C(Nc1ccccc1C(=O)OCc1cc(=O)n2nc(C3CC3)sc2n1)c1ccc(Cl)cc1 3.17%
Cc1cc(C)n(CCC(=O)Nc2ccc(Cl)cc2)n1 4.61%
CCOc1ccc(N2CC(NC(=O)c3ccc4c(c3)OCO4)CC2=O)cc1 (stereo unspecified) 0.147%
CCCCNc1nc2c(S(=O)(=O)c3ccc(C)cc3)nnn2c2ccsc12 7.71%
CCOC(=O)CNC(=O)c1cc2c(=O)oc3ccccc3c2s1 2.46%
CCC(C)NC(=O)c1ccc2c(c1)sc1nc(-c3ccc(OC)cc3)cn12 (stereo unspecified) -9.38%
Cc1ccc(N2CC(NC(=O)c3ccc(S(=O)(=O)N(C)C)cc3)CC2=O)cc1C (stereo unspecified) 8.35%
O=C(NCC(c1cccs1)S(=O)(=O)c1cccs1)c1ccc(F)c(F)c1 (stereo unspecified) 9.72%
CCOc1ccc(CCNC(=O)c2ccc3c(c2)N(Cc2ccc(F)cc2)CCS3)cc1 4.89%
CCC(CC)C(=O)N1c2ccccc2C(C)(c2ccccc2)CC1(C)C (stereo unspecified) 3.17%
COC(=O)CN1C(=O)CSc2ccc(S(=O)(=O)Nc3ccc(F)c(Cl)c3)cc21 8.26%
COc1ccc(C(=O)NCCSc2c[nH]c3ccccc23)cc1OC 3.98%
CC(C)Cc1cc(C(=O)NCc2ccc(Cl)cc2)no1 23.9%
CCc1ccc2oc(-c3ccc(C)c(NC(=O)c4cc([N+](=O)[O-])ccc4N4CCOCC4)c3)nc2c1 2.83%
CCOC(=O)Cn1c(=O)oc2cc(S(=O)(=O)N3CCN(c4cccc(Cl)c4)CC3)ccc21 -1.93%
Cc1cc(C)c(Cn2c(=O)n(CCC(=O)NCCc3ccccc3)c(=O)c3ccccc32)c(C)c1 53.6%
COc1ccc(OC)c(CCNC(=O)c2c(C)oc3ncn(CC(C)C)c(=O)c23)c1 8.6%
CN1CCN(C(CNC(=O)c2ccc(F)cc2)c2ccc3c(c2)OCO3)CC1 (stereo unspecified) 12.3%
CC(=O)N1CCc2c(sc3c2c(=O)n(Cc2ccccc2)c(=O)n3Cc2ccc(Cl)cc2)C1 28.2%
CCN(CC)c1ccc(C(=O)N2CCc3c([nH]c4ccccc34)C2c2ccc(F)cc2)cc1 (stereo unspecified) 4.82%
Cc1ccc(NC(=O)c2cccc3c(=O)c4c([nH]c23)CCCC4)c(C)c1 7.91%
CCOc1ccc(NC(=O)Nc2nnc(N3CCCCC3C)s2)cc1 (stereo unspecified) 9.04%
CCOC(=O)c1sc2ccccc2c1S(=O)(=O)Nc1ccc(OC)c(Cl)c1 -2.85%
COc1cccc(CNC(=O)c2c(C)nn(-c3ccc(F)cc3)c2-n2cccc2)c1 11.2%
COCCN(CCOC)S(=O)(=O)c1ccc(C(=O)Nc2sc3c(c2C(N)=O)CCCC3)cc1 13.2%
CCCn1c(=N)c(C(=O)NCC2CCCO2)cc2c(=O)n3cc(C)ccc3nc21 (stereo unspecified) -2.12%
Cc1cccc(CSc2cn(CC(=O)N3CCOCC3)c3ccccc23)c1 9.77%
Cc1ccc(Cl)cc1-n1ncc2c(NCCc3ccccc3)ncnc21 0.113%
COc1cccc(NC(=O)Cn2nc(N3CCN(c4ccccc4)CC3)ccc2=O)c1 -4.99%
COc1ccc(S(=O)(=O)N2CCC(c3nc4ccccc4s3)CC2)cc1OC 6.96%

outcome, inactive:
COc1ccc(-c2nc3ccccc3o2)cc1NC(=O)COc1ccc(C)c(C)c1
Cc1cccc(Cn2cc(S(=O)(=O)c3ccccc3)c(=O)c3cc(F)c(N4CCOCC4)cc32)c1
CCc1ccc2ncc3c(-c4ccc(F)cc4)nn(CC(=O)NC4CCCCC4)c3c2c1
COc1ccc(N2CCN(C(=O)c3cc4c(=O)oc5ccc(C)cc5c4s3)CC2)cc1
Cc1c(C)n(Cc2ccccc2)c2ccc(C(=O)NCC(C)c3ccccc3)cc12 (stereo unspecified)
COC(=O)c1sccc1S(=O)(=O)N(CC(=O)Nc1cc(C)ccc1C)c1ccc(C)c(C)c1
COc1ccccc1CNC(=O)CSc1nc(-c2ccc(OC)c(OC)c2)cc(C(F)(F)F)n1
O=C(Cn1cc(S(=O)(=O)Cc2cccc(Cl)c2)c2ccccc21)Nc1ccccc1C(F)(F)F
O=C(CSc1nc2c([nH]c3ccccc32)c(=O)n1-c1cccc(Cl)c1)N1CCCC1
CSc1ncc(C(=O)Nc2cc(C)cc(C)c2)c(-c2ccccc2)n1
COc1ccc(-n2c(=O)c3c4c(sc3n(Cc3ccc(F)cc3)c2=O)CN(C(C)=O)CC4)c(OC)c1
Clc1ccc(CSc2ccc(-c3cccs3)nn2)cc1
O=C(O)c1sc(Nc2ccccc2)nc1-c1ccccc1
CCOCCCn1c(SCC(=O)Nc2ccccc2CC)nc2ccccc2c1=O
Cc1ccc(NC(=O)Nc2nnc(SCC(=O)N(C(C)C)C(C)C)s2)cc1
